Consider 31 molecules from PMC9911399, “Two distinct binding modes provide the RNA-binding protein RbFox with extraordinary sequence specificity”.

Positions count from the first letter of the chain named. The list shows a part of the results.

Sequences and labels used below:
B1: GAUCGGA (DNA:RNA)
RNA: GGGAGACCGGAAUUCAGAUUGUCCGAUCGGAUUAAAUCCCGUCGUAGCCACCA
DNA 1: CAATCTGAATTCCGGTCTCCC
DNA 2: TGGTGGCTACGACGGGATT
B2: AGCAUAA (DNA:RNA)
RNA: B1 RNA with G25A, A26G, U27C, C28A, G29U, G30A
DNA 1: CAATCTGAATTCCGGTCTCCC
DNA 2: TGGTGGCTACGACGGGATT
B3: CUACCGU (DNA:RNA)
RNA: B1 RNA with G25C, A26U, U27A, G29C, A31U
DNA 1: CAATCTGAATTCCGGTCTCCC
DNA 2: TGGTGGCTACGACGGGATT
B4: AGAUUGU (DNA:RNA)
RNA: B1 RNA with G25A, A26G, U27A, C28U, G29U, A31U
DNA 1: CAATCTGAATTCCGGTCTCCC
DNA 2: TGGTGGCTACGACGGGATT
B5: UUUCAAC (DNA:RNA)
RNA: B1 RNA with G25U, A26U, G29A, G30A, A31C
DNA 1: CAATCTGAATTCCGGTCTCCC
DNA 2: TGGTGGCTACGACGGGATT
B6: UUCUAGC (DNA:RNA)
RNA: B1 RNA with G25U, A26U, U27C, C28U, G29A, A31C
DNA 1: CAATCTGAATTCCGGTCTCCC
DNA 2: TGGTGGCTACGACGGGATT
B7: CGUGUCU (DNA:RNA)
RNA: B1 RNA with G25C, A26G, C28G, G29U, G30C, A31U
DNA 1: CAATCTGAATTCCGGTCTCCC
DNA 2: TGGTGGCTACGACGGGATT
B8: UGAUCUC (DNA:RNA)
RNA: GGGAGACCGGAAUUCAGAUUGUCCUGAUCUCUUAAAUCCCGUCGUAGCCACCA
DNA 1: CAATCTGAATTCCGGTCTCCC
DNA 2: TGGTGGCTACGACGGGATT
B9: UAACAAU (DNA:RNA)
RNA: B1 RNA with G25U, U27A, G29A, G30A, A31U
DNA 1: CAATCTGAATTCCGGTCTCCC
DNA 2: TGGTGGCTACGACGGGATT
B10: GUAUUAG (DNA:RNA)
RNA: B8 RNA with U25G, G26U, C29U, U30A, C31G
DNA 1: CAATCTGAATTCCGGTCTCCC
DNA 2: TGGTGGCTACGACGGGATT
B11: GUAUAUA (DNA:RNA)
RNA: B8 RNA with U25G, G26U, C29A, C31A
DNA 1: CAATCTGAATTCCGGTCTCCC
DNA 2: TGGTGGCTACGACGGGATT
B12: CUUGCAA (DNA:RNA)
RNA: B1 RNA with G25C, A26U, C28G, G29C, G30A
DNA 1: CAATCTGAATTCCGGTCTCCC
DNA 2: TGGTGGCTACGACGGGATT
B13: ACAUUCU (DNA:RNA)
RNA: B8 RNA with U25A, G26C, C29U, U30C, C31U
DNA 1: CAATCTGAATTCCGGTCTCCC
DNA 2: TGGTGGCTACGACGGGATT
B14: GUGAUUG (DNA:RNA)
RNA: B1 RNA with A26U, U27G, C28A, G29U, G30U, A31G
DNA 1: CAATCTGAATTCCGGTCTCCC
DNA 2: TGGTGGCTACGACGGGATT
B15: CAGAAAA (DNA:RNA)
RNA: B1 RNA with G25C, U27G, C28A, G29A, G30A
DNA 1: CAATCTGAATTCCGGTCTCCC
DNA 2: TGGTGGCTACGACGGGATT
B16: AAUGUAA (DNA:RNA)
RNA: B1 RNA with G25A, C28G, G29U, G30A
DNA 1: CAATCTGAATTCCGGTCTCCC
DNA 2: TGGTGGCTACGACGGGATT
B17: AUAUCGU (DNA:RNA)
RNA: B8 RNA with U25A, G26U, U30G, C31U
DNA 1: CAATCTGAATTCCGGTCTCCC
DNA 2: TGGTGGCTACGACGGGATT
B18: GAUAACA (DNA:RNA)
RNA: B1 RNA with C28A, G29A, G30C
DNA 1: CAATCTGAATTCCGGTCTCCC
DNA 2: TGGTGGCTACGACGGGATT
B19: AAAACGG (DNA:RNA)
RNA: B1 RNA with G25A, U27A, C28A, G29C, A31G
DNA 1: CAATCTGAATTCCGGTCTCCC
DNA 2: TGGTGGCTACGACGGGATT
B20: UAGCUCC (DNA:RNA)
RNA: B1 RNA with G25U, U27G, G29U, G30C, A31C
DNA 1: CAATCTGAATTCCGGTCTCCC
DNA 2: TGGTGGCTACGACGGGATT
B21: CACACCC (DNA:RNA)
RNA: B8 RNA with U25C, G26A, A27C, U28A, U30C
DNA 1: CAATCTGAATTCCGGTCTCCC
DNA 2: TGGTGGCTACGACGGGATT
B22: CGGUUGA (DNA:RNA)
RNA: B1 RNA with G25C, A26G, U27G, C28U, G29U
DNA 1: CAATCTGAATTCCGGTCTCCC
DNA 2: TGGTGGCTACGACGGGATT
B23: UACCAUA (DNA:RNA)
RNA: B1 RNA with G25U, U27C, G29A, G30U
DNA 1: CAATCTGAATTCCGGTCTCCC
DNA 2: TGGTGGCTACGACGGGATT
B24: UACUCGU (DNA:RNA)
RNA: B8 RNA with G26A, A27C, U30G, C31U
DNA 1: CAATCTGAATTCCGGTCTCCC
DNA 2: TGGTGGCTACGACGGGATT
B25: AUUAGCC (DNA:RNA)
RNA: B1 RNA with G25A, A26U, C28A, G30C, A31C
DNA 1: CAATCTGAATTCCGGTCTCCC
DNA 2: TGGTGGCTACGACGGGATT
B26: CGGAGGA (DNA:RNA)
RNA: B1 RNA with G25C, A26G, U27G, C28A
DNA 1: CAATCTGAATTCCGGTCTCCC
DNA 2: TGGTGGCTACGACGGGATT
B27: AUUGCCC (DNA:RNA)
RNA: B8 RNA with U25A, G26U, A27U, U28G, U30C
DNA 1: CAATCTGAATTCCGGTCTCCC
DNA 2: TGGTGGCTACGACGGGATT
B28: AGCGGUU (DNA:RNA)
RNA: B8 RNA with U25A, A27C, U28G, C29G, C31U
DNA 1: CAATCTGAATTCCGGTCTCCC
DNA 2: TGGTGGCTACGACGGGATT
B29: GUUAGGU (DNA:RNA)
RNA: B1 RNA with A26U, C28A, A31U
DNA 1: CAATCTGAATTCCGGTCTCCC
DNA 2: TGGTGGCTACGACGGGATT
B30: UAAAGAA (DNA:RNA)
RNA: B1 RNA with G25U, U27A, C28A, G30A
DNA 1: CAATCTGAATTCCGGTCTCCC
DNA 2: TGGTGGCTACGACGGGATT
B31: UUGCCUA (DNA:RNA)
RNA: B8 RNA with G26U, A27G, U28C, C31A
DNA 1: CAATCTGAATTCCGGTCTCCC
DNA 2: TGGTGGCTACGACGGGATT

This test has as its target T1, RBFOX1 RRM (Homo sapiens, UniProt Q9NWB1 109-208).
T1 sequence: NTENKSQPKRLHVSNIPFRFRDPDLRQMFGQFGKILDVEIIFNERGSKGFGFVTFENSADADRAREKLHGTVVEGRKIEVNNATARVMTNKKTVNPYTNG
Briefly: EMSA; HiTS-Eq, 1 nM pool, 10 min; buffer printed only for the single-RNA assays: 10 mM Tris pH 7.5, 150 mM NaCl, 3.4 mM EDTA, 0.001% NP-40, 30 C. To be noted: tags: His6 N-terminal (pET28a); label: 5' 32P. Summed up: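 These values rest on relative association constants, computed from read-count changes of each RNA species versus the control reaction and normalised to the cognate motif. Reads came from free RNA recovered by 8% native PAGE after purified RbFox RRM (wild type or mutant) at increasing concentrations was equilibrated for 10 min in 50 µL with 1 nM of a 5′-radiolabelled pool with 7 randomized nucleotides and DNA-annealed flanks.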
For B1, the binding signal was 0.0063 KA relative to UGCAUGU.

On to B2, for which the binding signal was 0.00471 KA relative to UGCAUGU.

Consider B3, for which the binding signal is 0.00445 KA relative to UGCAUGU.

For B4, the binding signal is 0.0119 KA relative to UGCAUGU.

On to B5, for which the binding signal was 0.00553 KA relative to UGCAUGU.

On to B6, for which the binding signal was 0.00968 KA relative to UGCAUGU.

As to B7, the binding signal is 0.0155 KA relative to UGCAUGU.

Regarding B8, the binding signal is 0.0106 KA relative to UGCAUGU.

On to B9, for which the binding signal was 0.00334 KA relative to UGCAUGU.

As for B10, the binding signal is 0.0103 KA relative to UGCAUGU.

B11: the binding signal is 0.00391 KA relative to UGCAUGU.

As for B12, the binding signal is 0.00807 KA relative to UGCAUGU.

Take B13: the binding signal was 0.000537 KA relative to UGCAUGU.

On to B14, for which the binding signal was 0.0236 KA relative to UGCAUGU.

On to B15, for which the binding signal was 0.000855 KA relative to UGCAUGU.

Take B16: the binding signal was 0.00664 KA relative to UGCAUGU.

On to B17, for which the binding signal was 0.00482 KA relative to UGCAUGU.

On to B18, for which the binding signal is 0.00439 KA relative to UGCAUGU.

With B19, the binding signal was 0.0043 KA relative to UGCAUGU.

With B20, the binding signal was 0.00512 KA relative to UGCAUGU.

For the molecule B21, the binding signal is 0.00117 KA relative to UGCAUGU.

As to B22, the binding signal is 0.0194 KA relative to UGCAUGU.

As to B23, the binding signal was 0.00257 KA relative to UGCAUGU.

On to B24, for which the binding signal was 0.0114 KA relative to UGCAUGU.

In the case of B25, the binding signal was 0.00447 KA relative to UGCAUGU.

Take B26: the binding signal was 0.0197 KA relative to UGCAUGU.

Take B27: the binding signal is 0.00694 KA relative to UGCAUGU.

Consider B28, for which the binding signal was 0.0148 KA relative to UGCAUGU.

For the molecule B29, the binding signal is 0.0103 KA relative to UGCAUGU.

As to B30, the binding signal is 0.00803 KA relative to UGCAUGU.

In the case of B31, the binding signal was 0.0132 KA relative to UGCAUGU.
